Laboratory results reported in PubChem BioAssay AID2060601 (Molecular Pharmacology Branch, DTP, NCI, 2025).
For part of its entries the source gives two or more results. Only these are listed. There may be further records. The values listed for one entry are repeated measurements across runs, samples, wells, individuals or studies.

System: 874868-142-R-J2-PDC complex spheroids, growth % test/control
Assay: Anticancer human tumor 874868-142-R-J2-PDC patient-derived head and neck squamous carcinoma cell line growth inhibition [CLK]
Text: A high-throughput screen of multi-cell type tumor spheroids was designed to identify active combinations of […] and targeted small molecules. Complex spheroids include a stromal component modeled by human endothelial cells (HUVEC) and fibroblasts modeled by human mesenchymal stem cells (MSCs). The concentration ranges selected for each drug and investigational agent were based upon clinically achievable concentrations if the clinical Cmax of the agent was known.
Compounds. The drugs and investigational agents: cirtuvivint (SM08502; NSC835563), CC-671 (NSC850746), vemurafenib (NSC761431), tapotoclax (NSC804041), sotorasib (NSC818433), adagrasib (NSC831453), MRTX-1133 (NSC836407), BAY2416964 (NSC825713), copanlisib (NSC816437), inavolisib (NSC800729), abemaciclib (NSC768073), osimertinib (NSC779217), entinostat (NSC756642), eltanexor (KPT-8602, NSC794443), venetoclax (NSC766270), ceralasertib (NSC777638), bortezomib (NSC756655), olaparib (NSC753686), talazoparib (NSC767125), alisertib (NSC759677), peposertib (NSC802822), gemcitabine (NSC613327), 5-fluorouracil (NSC19893), SN-38 (NSC673596), oxaliplatin (NSC266046), paclitaxel (NSC125973), and doxorubicin (NSC123127), were obtained from the National Cancer Institute (NCI) Developmental Therapeutics Program Chemical Repository. […] If the clinical Cmax for an agent had not been determined, the highest concentration tested was 10 microM. […]
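Also: spheroids exposed to the compounds for 7 days.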
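For viability, T/C in this document: 100% = DMSO vehicle control viability.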

CNC(=O)c1ccc(Nc2nc(OC3CCCC3)c3c(-c4ccc5nc(C)oc5c4)c[nH]c3n2)c(OC)c1
viability, T/C (compound alone 0.0316 µM, stronger effect = lower value): 97.4, 95.9, 86.5, 82.7, 117, 101, 107, 105, 90.5, 95.6, 95%
IC50 (compound alone, run of 09/19/2023): 658 nM, 751 nM, 913 nM, 720 nM, 791 nM, 974 nM, 767 nM, 1.68 µM, 980 nM, 569 nM, 391 nM
